Assay results from publication PMC4336329 (PLoS ONE, 2015).
Hit rate of the full screen: of about 310,000 compounds, about 2,200 (0.71%) showed an effect of 50% or more. Effects have a minus sign here. This is one part of the list.

The molecules below were run against human ether-à-go-go-related gene (hERG) potassium channel (human, UniProt Q12809) (assay: primary screen, population patch clamp on CHO cells stably expressing hERG).
human ether-à-go-go-related gene (hERG) potassium channel, sequence (Q12809 whole entry, looked up): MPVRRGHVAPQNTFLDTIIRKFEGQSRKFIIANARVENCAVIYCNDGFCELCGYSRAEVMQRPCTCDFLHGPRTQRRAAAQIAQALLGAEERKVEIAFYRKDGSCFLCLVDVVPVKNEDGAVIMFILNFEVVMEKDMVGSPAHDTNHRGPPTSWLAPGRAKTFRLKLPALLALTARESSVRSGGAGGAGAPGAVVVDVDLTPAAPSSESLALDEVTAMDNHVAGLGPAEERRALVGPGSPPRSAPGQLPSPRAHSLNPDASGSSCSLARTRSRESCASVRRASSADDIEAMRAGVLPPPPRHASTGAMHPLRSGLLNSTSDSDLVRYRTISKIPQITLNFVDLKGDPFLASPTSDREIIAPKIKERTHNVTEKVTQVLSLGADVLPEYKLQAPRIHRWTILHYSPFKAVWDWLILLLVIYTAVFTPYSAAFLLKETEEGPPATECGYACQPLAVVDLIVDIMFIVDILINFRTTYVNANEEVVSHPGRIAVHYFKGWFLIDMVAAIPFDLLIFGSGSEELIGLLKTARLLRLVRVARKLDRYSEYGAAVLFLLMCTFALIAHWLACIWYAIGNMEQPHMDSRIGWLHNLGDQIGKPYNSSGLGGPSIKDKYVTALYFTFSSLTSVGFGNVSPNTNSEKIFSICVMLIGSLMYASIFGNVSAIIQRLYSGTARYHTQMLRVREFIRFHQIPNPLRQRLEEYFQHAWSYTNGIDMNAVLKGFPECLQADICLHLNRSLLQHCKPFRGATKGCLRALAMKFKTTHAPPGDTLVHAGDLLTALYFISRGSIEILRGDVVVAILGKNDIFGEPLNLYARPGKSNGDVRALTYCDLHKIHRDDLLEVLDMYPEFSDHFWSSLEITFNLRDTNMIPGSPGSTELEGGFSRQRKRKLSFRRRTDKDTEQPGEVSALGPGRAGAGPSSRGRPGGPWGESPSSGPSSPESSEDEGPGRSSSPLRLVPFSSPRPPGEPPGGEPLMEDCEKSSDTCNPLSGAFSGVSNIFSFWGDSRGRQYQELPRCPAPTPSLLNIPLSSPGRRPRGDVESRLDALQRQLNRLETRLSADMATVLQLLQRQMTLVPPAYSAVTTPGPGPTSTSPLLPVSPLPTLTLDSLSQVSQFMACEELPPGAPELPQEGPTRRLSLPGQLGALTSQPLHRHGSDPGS

Row | Compound | hERG current change (%, negative = inhibition) at 1uM [%]
1 | COc1ccc(NC(=O)c2sc(SC)nc2N)cc1 | 7.92
2 | C/C=C(\C)C(=O)OC1C(C)=C2C(C1OC(=O)CCCCC)C(C)(OC(C)=O)CC(OC(=O)CCC)C1(O)C2OC(=O)C1(C)O (stereo not shown) | 1.84
3 | CCOC(=O)c1cccc(NC(=O)/C=C/c2cccc([N+](=O)[O-])c2)c1 | -1.74
4 | Cn1c(N)c(C#N)c(C#N)c1-c1ccccc1 | -0.668
5 | O=C(Nc1ccccc1)OC(CN1CCCCC1)C(F)(F)F (stereo not shown) | 8.2
6 | COc1ccccc1N=Cc1c(C)[nH]n(-c2ccc(C)cc2C)c1=O | 12.6
7 | CCOC(=O)C1C(=O)NC(c2ccccc2)=NC1c1cccc(Br)c1 (stereo not shown) | 16.7
8 | O=C(c1ccc2c(c1)OCO2)N(c1ccc(Cl)cc1)C1C=CS(=O)(=O)C1 (stereo not shown) | -1.21
9 | Fc1cccc(F)c1-c1nc(-c2ccc(Cl)cc2)no1 | 11.5
10 | Br.CC(C)(C)c1ccc(OCC(=O)NN2Cc3ccccc3C2=N)cc1 | -6.2
11 | Cn1c(CO)cnc1SCc1ccccc1 | 3.67
12 | CCOC(=O)C1=C(C)NC(=O)NC1/C=C/c1ccccc1OC (stereo not shown) | 14.9
13 | CC/C(O)=C1\C(=O)CCCC1=NCCc1nc2ccccc2[nH]1 | 13.7
14 | O=C(OCc1cc(=O)n2cc(Br)ccc2n1)c1ccc(Cl)c(S(=O)(=O)NCc2ccccc2)c1 | 12.7
15 | CCOC(=O)c1ccc(-c2nnc(-c3ccc(Cl)cc3Cl)o2)cc1 | -6.75
16 | Cc1ccc(S(=O)(=O)N2CCN(CCNC(=O)C(=O)NCc3ccccc3)CC2)cc1 | 10
17 | C[S+](CC[C@H](N)C(=O)O)C[C@H]1O[C@@H](n2cnc3c(N)ncnc32)[C@H](O)[C@@H]1O.[Cl-] (stereo partly shown) | 8.95
18 | Cc1cccc(N(C)S(=O)(=O)c2c[nH]c3ccc([N+](=O)[O-])cc23)c1 | 11.9
19 | CC(=O)c1cccc(NC(=O)NC2CC(=O)N(c3ccc4c(c3)OCCO4)C2)c1 (stereo not shown) | 3.93
20 | CC(NC(=O)CN1c2cccc3cccc(c23)S1(=O)=O)c1ccc(S(N)(=O)=O)cc1 (stereo not shown) | 3.5
21 | O=C(CCN1CCN(c2ccc(Cl)cc2)CC1)Nc1ccccc1F | 5.25
22 | COc1ccc(OC)c(NC(=O)C2CCCNC2=O)c1 (stereo not shown) | 4.53

Row | Compound | hERG current change (%, negative = inhibition) at 1uM [%]
23 | CC(Cc1ccccc1)NCCC(=O)NC(C)Cc1ccccc1 (stereo not shown) | 12.1
24 | CC(C)(C)[C@H]1C=C(C(=O)O)O[C@@H](OCCCCO)C1 | 11.2
25 | Cc1ccccc1OCCC(=O)OCC(=O)Nc1c(F)cccc1F | 14.7
26 | COc1cc(/C=N/NC(=O)c2csc3c2CCCC3)ccc1OCCN1CCOCC1 | 1.6
27 | COc1c2c(cc3oc(=O)ccc13)OC(C)(C)C=C2 | 2.48
28 | O=c1ccc(Br)c[nH]1 | 8.12
29 | COc1ccc(Cl)cc1N=Cc1c(O)c2ccccc2oc1=O | 22.6
30 | COC(=O)Nc1ccc(S(=O)(=O)NCCO)cc1 | -3.07
31 | COCCNC(=O)[C@H]1C[C@@H]1[C@H](NP(=O)(c1ccccc1)c1ccccc1)c1ccccc1 | 6.92
32 | Nc1ccc(S(=O)(=O)c2ccccc2)nc1 | 4.93
33 | Cc1c(CCC(C)C)c(=O)n2c([nH]c3ccccc32)c1C#N | 19.8
34 | CC1CC(=O)N(CC(=O)Nc2ccc(F)cc2)c2ccccc2S1(=O)=O (stereo not shown) | 9.51
35 | Cc1ccc(C)c2[nH]c(=O)c(CCNC(=O)c3ccc(S(=O)(=O)N4CCOCC4)cc3)cc12 | 9.64
36 | O=C(NCCNC(=O)c1cccc(O)c1)c1cccc(O)c1 | 13.1
37 | COc1ccc(CCNC(=O)c2cc3sc(Cl)cc3n2C)cc1OC | 9.36
38 | O=C(Nc1cccc(NC(=O)c2ccccc2)n1)c1ccccc1 | 6.31
39 | O=C(NCC1CCCO1)C1CCN(C2CCN(CCCC3CCCC3)CC2)CC1 (stereo not shown) | -5.53
40 | Cc1cc(C)c(C)c(S(=O)(=O)N2CCC(C(=O)OCC(=O)N3c4ccccc4NC(=O)C3(C)C)CC2)c1C | 9.76
41 | COc1cc(NC(=O)C2CC2)c(OC)cc1NC(=O)CCC(=O)NC1CCN(Cc2ccccc2)CC1 | 11.5
42 | Fc1ccc(CNc2ncnc3cc(Cl)ccc23)cc1 | 20.1
43 | CCCC/C(=N/O)c1c(C)[nH]c2ccccc12 | 1.98
44 | Cc1c(C(=O)O/N=C(\N)c2ccccn2)cccc1[N+](=O)[O-] | 4.21

Row | Compound | hERG current change (%, negative = inhibition) at 1uM [%]
45 | O=C(Nc1ccncc1)c1cc(-c2ccccn2)nc2ccc(Br)cc12 | 13.7
46 | Cc1cc(Cl)c2oc(C(=O)N3CCN(c4cccc(C)n4)CC3)c(C)c2c1 | 14
47 | CSc1nc2ccccc2n1CC(=O)Nc1c(C)cccc1C | 9.29
48 | Cc1nc2ccccc2c2nc3ccccc3n12 | -1.26
49 | CCN(C(=O)COC(=O)c1cccc(S(=O)(=O)N2CCOCC2)c1)C1CCS(=O)(=O)C1 (stereo not shown) | 3.29
50 | CC(C)Cc1nnc(NC(=O)CCC(=O)N2CCN(c3ccc([N+](=O)[O-])cc3)CC2)s1 | -34.8
51 | S=c1nc(-c2cccc(Cl)c2)[nH][nH]1 | 12.8
52 | O=C(Nc1nnc(S(=O)(=O)N2CCCCCC2)s1)c1ccccc1Br | 10.8
53 | O=C1CC(N2CCN(Cc3ccc4c(c3)OCO4)CC2)C(=O)N1c1cccc(Cl)c1 (stereo not shown) | -5.79
54 | COc1ccc(C(=O)Nc2ccc(C)cc2C(=O)c2ccccc2)cc1 | 17
55 | O=C(Nc1ccc(N2CCOCC2)cc1)C1(c2ccc(Cl)cc2)CCC1 | 11.9
56 | O=C(COc1ccccc1)N/N=C/c1ccc(O[C@@H]2O[C@H](CO)[C@@H](O)[C@H](O)[C@H]2O)cc1 | 6.74
57 | O=C(c1ccc([N+](=O)[O-])cc1)N(C1=NCCCCS1)c1ccccc1 | 3.32
58 | CCOc1ccc(-c2nnc(N(CC)C(=O)C3CCC3)s2)cc1 | 6.77
59 | Cc1nn2c(-c3ccncc3)nnc2c2ccccc12 | -1.4
60 | COc1ccc(-c2noc(CCCC(=O)Nc3ccc(C(N)=O)cc3)n2)cc1 | 21.7
61 | CCC(C)C(=O)Nc1c2c(nc3c1CCC3)CCCC2 (stereo not shown) | 4.8
62 | Cc1csc(NC(=O)CSc2nnc(-c3cc(C)on3)o2)n1 | 20.6
63 | Cc1ccccc1OCCn1cnc2c(N)ncnc21 | 13
64 | Cc1ccc(N(CC(=O)NC(C)C)C(=O)CCC(=O)Nc2nccs2)cc1 | 11
65 | Cc1nc2ccccc2c2oc(C(=O)Nc3ccc4c(c3)OCCO4)cc12 | 9.89
66 | Cc1cc(OCCOc2cccc3cccnc23)cc(C)c1Cl | -7.97

Row | Compound | hERG current change (%, negative = inhibition) at 1uM [%]
67 | CN1Cc2c(c(C#N)c(N)n(C)c2=S)CC1(C)C | 6.71
68 | CC(C)(C)NC(=O)C(c1ccccn1)N(C(=O)c1ccc2c(c1)OCCO2)C1CCCC1 (stereo not shown) | 6.78
69 | CC(C)Cn1c(N)c(C(=O)CSc2ccccc2)c(=O)n(C)c1=O | 17.7
70 | CCCc1ccc(S(=O)(=O)N(C)S(=O)(=O)c2ccc(F)cc2)cc1 | 8.42
71 | COc1ccc(C(=O)NCCS(=O)(=O)NCc2cccs2)cc1 | 3.8
72 | CN1CCN(c2ccc(S(=O)(=O)N3CCCCC3)cc2NC(=O)CCc2ccccc2)CC1 | -16.9
73 | COc1ccc(Cc2nnc(N/N=C(\C)c3ccccc3)[nH]c2=O)cc1OC | 14.8
74 | c1cncc(CSc2ccc(-c3ccc4c(c3)OCO4)nn2)c1 | 7.2
75 | CCOc1ccc2[nH]c(=O)c(C(c3nnnn3Cc3ccco3)N3CCCC(C)C3)cc2c1 (stereo not shown) | 11.6
76 | COc1ccc(C2C([N+](=O)[O-])=C(N)Oc3c2c(=O)oc2ccccc32)cc1 (stereo not shown) | 8.92
77 | CC(C)(C)OC(=O)N1CCC(NC(=O)c2[nH]cnc2C(=O)Nc2ccon2)CC1 | 2.9
78 | CCOc1ccc(NC(=O)CSC(N)=O)cc1 | 14.5
79 | CCOC(=O)c1sc(NC(=O)Nc2ccccc2Cl)cc1C | 6.33
80 | CN(Cc1c(F)cccc1Cl)C(=O)c1ccc2ccccc2n1 | 5.58
81 | COCCn1c(SCC(=O)N2CCOCC2)nc2c(c1=O)SCC2 | 2.47
82 | Cn1c(C(=O)N2CCC(C(=O)NCc3ccccc3)CC2)cc2sccc21 | 17.4
83 | COc1ccccc1Oc1coc2cc(OC(=O)N3CCOCC3)ccc2c1=O | -22.4
84 | COC(=O)Nc1c(C)nn(Cc2ccccc2C)c1C | -0.0507
85 | COCCCNC(=O)c1ccc(Cn2c(=O)c3ccccc3n(Cc3cc(C)ccc3C)c2=O)cc1 | -7.73
86 | COc1ccc(/C=C2\CCc3ccccc3C2=O)cc1Cn1cccn1 | 9.56
87 | Cc1cccn2cc(CCNC(=O)Cc3cccs3)nc12 | 6
88 | COc1cc2cc(CCCOC(=O)c3ccc(F)cc3)oc(=O)c2cc1OC | 14.6
